# Data published in PubChem BioAssay AID1508649 (National Center for Advancing Translational Sciences (NCATS), 2021).
# Among all 43,000 compounds or so, about 830 (1.9%) were called active. The inconclusive results got no clear call from the source; some entries with a clear call stand among them for comparison. How the source made its calls: active means clear falling dose curves in both reporters; inconclusive means both reporters move, but less clearly or upward; inactive means either reporter flat; the % is the NLuc reporter signal. Potencies of inconclusive entries are left out as doubtful fits.
# Assay: Cell-based coincidence reporter assay to measure PMP22 gene transcription in S16 Pmp22-F2sN cells - Primary screen
# Conditions: S16 Pmp22-F2sN Schwann cells (luciferase reporters placed in the Pmp22 gene), FLuc/NLuc coincidence luminescence, 24 h; measured here: NLuc reporter readout, at 57.5 µM (top of the series); activity change, negative = inhibition: at the top concentration
# How it was run: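 Rat S16 Pmp22-F2sN cells, 500-1,000/well in phenol red-free DMEM + 10% FBS, compound-treated 24 h (37C, 5% CO2). Luminescence: FLuc read, Stop&Glo added, NLuc read.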
# On the % scale 0 is the no-effect control and ±100 the full control effect; potency means the concentration at half of the fitted maximal effect; tags describe the fitted curve by direction and shape.
SMILES,Potency,"activity change, negative = inhibition"
O=C(NCCc1csc(-c2ccc(F)cc2)n1)c1ccc(Br)o1,"inconclusive [phenotype inactive, single point]",
CCOC(=O)c1ccc(NC(=O)Cn2cc(C(=O)c3ccc(Cl)cc3)c(=O)c3ccc(C)nc32)cc1,active: 12.1 µM,
O=C(CCNS(=O)(=O)c1ccc2c(c1)CCN2C(=O)C1CC1)Nc1ccc(F)cc1F,"inconclusive [phenotype inactive, partial curve]",
Cc1csc2nc(-c3cccc(NC(=O)c4c(F)cccc4F)c3)cn12,"inconclusive [phenotype inactive, partial curve, poor fit]",
O=C(CCCn1c(=O)c2ccccc2n(Cc2cccc(F)c2)c1=O)NCc1ccccc1Cl,"inconclusive [phenotype inactive, single point]",
Cc1ccc(CNC(=O)C2CCCN(Cc3nc(-c4cccc(C)c4)oc3C)C2)cc1 (stereo unspecified),"inconclusive [phenotype inactive, single point]",
COc1ccc(-c2nc3ccccc3o2)cc1NC(=O)c1ccc(-c2cccc(Cl)c2C)o1,,inactive: -8.18%
CCc1c(C)nc2nc(-c3ccccc3)nn2c1NCc1ccc(C)cc1,"inconclusive [phenotype inactive, partial curve]",
CC1=C(C(=O)OC2CCCCCC2)C(c2ccc(Cl)cc2)CC(=O)N1 (stereo unspecified),"inconclusive [phenotype inactive, single point]",
Cc1cccc(C(=O)Nc2ccc(S(=O)(=O)N3CCCCC3c3cccnc3)cc2)c1 (stereo unspecified),"inconclusive [phenotype inactive, single point]",
Cc1oc(-c2ccccc2Cl)nc1CSc1nncn2c1cc1occc12,,inactive: -3.36%
CC(=O)c1ccc(NC(=O)CSc2nccn2Cc2ccc3c(c2)OCO3)cc1,"inconclusive [phenotype inactive, single point]",
O=C(NCC1CCN(Cc2ccc(F)cc2)CC1)c1cc2ccc3cccnc3c2[nH]1,"inconclusive [phenotype inactive, single point]",
CC(=O)c1cccc(NC(=O)c2ccc3nc(C(C)C)oc3c2)c1,"inconclusive [phenotype inactive, single point]",
COc1cc2nc(SCC(=O)Nc3cccc(C)c3)n3nc(-c4ccccc4)nc3c2cc1OC,,inactive: 8.08%
COc1ccc(-c2noc(CSc3nnc(-c4ccncc4)n3-c3ccc(C)c(C)c3)n2)cc1,active: 12.6 µM,
CCCCOc1ccc(C(=O)N(Cc2nc(-c3ccc(Cl)cc3)no2)C(C)C)cc1,"inconclusive [phenotype inactive, single point]",
N#C/C(=C\c1ccc(-c2ccc(C(=O)O)cc2)o1)c1nc2ccccc2[nH]1,,inactive: -29.5%

SMILES,Potency,"activity change, negative = inhibition"
Cc1ccc(OCC(=O)Nc2ccc3nc(SCC(=O)N(C)c4ccccc4)sc3c2)cc1,"inconclusive [phenotype inactive, partial curve]",
COc1ccc(Cl)cc1NC(=O)NCC1CCN(Cc2ccccc2F)CC1,"inconclusive [phenotype inactive, single point]",
CCOc1ccc(Nc2c(S(=O)(=O)c3ccccc3)cnc3ccccc23)cc1,"inconclusive [phenotype inactive, partial curve, poor fit]",
CCCN(CCC)C(=O)c1cc2c(=O)n3cccc(C)c3nc2n1C,"inconclusive [phenotype inactive, single point]",
COc1ccc(OCC(=O)N2CCN(C(=O)c3cccc(OC)c3)CC2)cc1,,inactive: 3.84%
COc1cccc(CNC(=O)CCc2c(C)c3cc4c(C)coc4c(C)c3oc2=O)c1,"inconclusive [phenotype inactive, partial curve]",
O=C(NC1CCCCC1)c1ccc2c(c1)N(Cc1ccc(Cl)cc1)C(=O)c1ccccc1S2=O (stereo unspecified),"inconclusive [phenotype inactive, single point]",
CCn1cc(C(=O)NCCc2ccc(Cl)cc2)c(=O)c2cc(S(=O)(=O)N3CCC(C)CC3)ccc21,"inconclusive [phenotype inactive, single point]",
COc1ccc(-n2ccnc(NCc3ccc(C)cc3)c2=O)cc1OC,"inconclusive [phenotype inactive, single point]",
O=C(CSc1cn(CC(=O)N2CCCC2)c2ccccc12)Nc1cc(C(F)(F)F)ccc1Cl,"inconclusive [phenotype inactive, partial curve, poor fit]",
Cc1ccccc1Nc1c(-c2ccncc2)nc2ccc(Cl)cn12,"inconclusive [phenotype inactive, single point]",
Cc1ccc(CNC(=O)Cn2c(=O)n(-c3cccc(Cl)c3)c(=O)c3sc4ccccc4c32)cc1,active: 9.46 µM,
Cc1cccc(-n2c(SCC(=O)c3ccccc3)nnc2-c2ccc(Br)cc2)c1,"inconclusive [phenotype inactive, single point]",
Cc1ccc(OC(=O)CSc2nnc(CNC(=O)c3ccccc3)o2)cc1,,inactive: 15%
CCOC(=O)c1ccc(N2C(=O)c3n[nH]c(-c4cccs4)c3C2c2ccc(Cl)cc2Cl)cc1 (stereo unspecified),"inconclusive [phenotype inactive, single point]",
CN(Cc1ccccc1)C(=O)c1cn(C)c2ccc(S(=O)(=O)N(C)C3CCCCC3)cc2c1=O,"inconclusive [phenotype inactive, partial curve, poor fit]",
Cc1ccc(CNC(=O)C2CCN(C(=O)c3cnn(-c4ccccc4)c3-n3cccc3)CC2)cc1,"inconclusive [phenotype inactive, single point]",
CC(=O)N1CCc2c(sc3c2c(=O)n(CCc2ccccc2)c(=O)n3Cc2cccc(C)c2)C1,"inconclusive [phenotype inactive, single point]",
